# Reference: PubChem BioAssay AID588342 (National Center for Advancing Translational Sciences (NCATS), 2011)
# About 25,000 (6.9%) of roughly 360,000 compounds were called active. The inconclusive results got no clear call from the source; some entries with a clear call stand among them for comparison. Calls follow the shape of the dose curve; as a rule, active = well fitted inhibition curve with a large enough effect; inconclusive = small, poorly fitted or top-dose-only effect; inactive = flat fitted curve, though single readings scatter. Potencies of inconclusive entries are doubtful fits and often do not repeat.
# Biological target: Luciferin 4-monooxygenase (Photinus pyralis) (UniProt P08659)
# Test: qHTS profiling assay for firefly luciferase inhibitor/activator using purifed enzyme and Km concentrations of substrates (counterscreen for miR-21 project); also: nearly all actives have a fitted effect of over 55% in size
# Conditions: purified FLuc, luminescence inhibition; series mostly up to 57.5 µM
# Procedure, shortened: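 Biochemical qHTS of compounds, final roughly 60 µM downward over six points, against 10 nM purified firefly luciferase using Km concentrations of substrates (10 uM D-luciferin, 10 uM ATP) in Tris acetate pH 7.5 buffer; luminescence output.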
# Potency is read from the fitted curve at half-maximal effect; tags tell the direction and shape of the fitted curve.
# Sequence of UniProt P08659 (P08659 whole entry, looked up): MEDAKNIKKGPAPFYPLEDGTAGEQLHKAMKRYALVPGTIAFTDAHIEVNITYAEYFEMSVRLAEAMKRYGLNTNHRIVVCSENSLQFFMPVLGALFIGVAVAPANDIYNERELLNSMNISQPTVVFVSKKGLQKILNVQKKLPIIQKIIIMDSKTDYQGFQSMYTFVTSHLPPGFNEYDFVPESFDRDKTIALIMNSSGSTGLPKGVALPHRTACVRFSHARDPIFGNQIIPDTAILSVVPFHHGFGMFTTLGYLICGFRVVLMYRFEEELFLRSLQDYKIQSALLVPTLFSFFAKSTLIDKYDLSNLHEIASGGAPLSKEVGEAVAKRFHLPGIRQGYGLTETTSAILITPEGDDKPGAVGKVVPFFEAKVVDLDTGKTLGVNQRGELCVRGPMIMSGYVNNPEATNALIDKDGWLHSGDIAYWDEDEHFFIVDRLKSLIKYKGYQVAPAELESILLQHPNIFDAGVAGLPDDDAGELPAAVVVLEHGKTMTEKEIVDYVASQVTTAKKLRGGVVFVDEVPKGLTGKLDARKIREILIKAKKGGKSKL
row,SMILES,Potency
1,O=[N+]([O-])c1cccc(/C=N/NC2=NS(=O)(=O)c3ccccc32)c1,"inconclusive: 19 µM [inhibitor, single point]"
2,Cc1ccsc1/C=N/n1c(-c2ccccn2)n[nH]c1=S,inactive
3,CCOc1ccc(-c2cc(CCCC(=O)NCCc3ccc(Cl)cc3)no2)cc1,"inconclusive: 21.3 µM [inhibitor, partial curve, poor fit]"
4,Cc1cccc(NC(=O)CSc2nc(-c3cccs3)cc(C(F)(F)F)c2C#N)c1C,inactive
5,Oc1ccc(/C=N/Nc2ncc(Cl)cc2Cl)cc1,"inconclusive: 12 µM [inhibitor, partial curve, poor fit]"
6,COC(=O)c1c(-c2cccs2)csc1NC(=O)c1ccc(Br)cc1,"inconclusive: 6.01 µM [inhibitor, full curve]"
7,COC(=O)c1c(-c2cccs2)csc1NC(=O)c1cccc(Cl)c1,"inconclusive: 6.75 µM [inhibitor, partial curve]"
8,Cc1occc1C(=O)Nc1ccc2c(c1)OCO2,active: 23.9 µM
9,O=C(/C=C/c1cccc(Br)c1)N1CCN(c2ccccn2)CC1,"inconclusive: 30.1 µM [inhibitor, partial curve, poor fit]"
10,O=C(NNCc1ccc(O)cc1)c1ccccc1Cl,"inconclusive: 23.9 µM [inhibitor, single point]"
11,Cc1ccc(Cc2nc(-c3ccccn3)no2)cc1,active: 10.7 µM
12,O=C(NCc1cccs1)c1nn(-c2ccccc2Cl)nc1CO,inactive
13,COC(=O)c1ccccc1NC(=O)NCc1c(C)nn(C)c1C,"inconclusive: 26.9 µM [inhibitor, partial curve, poor fit]"
14,Cc1[nH]n(-c2ccccc2)c(=O)c1C(c1cc(Cl)ccc1O)c1c(C)[nH]n(-c2ccccc2)c1=O,active: 19 µM
15,O=C(CSc1nc(-c2ccccc2)c(-c2ccccc2)[nH]1)N1CCN(S(=O)(=O)c2ccccc2)CC1,inactive
16,C/C(=N/NC(=O)c1cc(Cl)ccc1O)C12CC3CC(CC(C3)C1)C2,active: 15.1 µM
17,COc1ccc(NC(=O)Nc2ccc3nonc3c2)cc1,"inconclusive: 16.9 µM [inhibitor, partial curve]"
18,O=C(O)c1cc([N+](=O)[O-])cc([N+](=O)[O-])c1N1CCN(c2cccc(C(F)(F)F)c2)CC1,inactive
19,CCSc1nnc(NC(=O)CSc2nnc(C)c(=O)n2N)s1,inactive
20,COc1ccc(NC(=O)Nc2ccc(Br)c(C)c2)cc1,"inconclusive: 3.79 µM [inhibitor, partial curve, poor fit]"
21,Cc1nc2sc3c(c2c(=N)n1N)CCCC3,inactive
22,Cc1ccc(NC(=O)CSCC(=O)O)cc1,inactive
23,CCOc1ccccc1-c1nc(-c2cccc(Br)c2)no1,"inconclusive: 21.3 µM [inhibitor, partial curve]"
24,CN=C1S/C(=C\c2ccc(SC)cc2)C(=O)N1C,active: 12 µM
25,CCN(CC)S(=O)(=O)c1ccc2c(c1)N(CC(=O)N1CCN(c3cccc(Cl)c3)CC1)C(=O)CO2,inactive

row,SMILES,Potency
1,O=C(c1cccs1)N(c1ccc(Br)cc1)C1C=CS(=O)(=O)C1 (centres undefined),inactive
2,Cc1ccc(NC(=O)N2CCc3cc(S(=O)(=O)N4CCC(C)CC4)ccc32)cc1,inactive
3,COc1cccc(-n2cc(C(=O)Nc3cccc(C(F)(F)F)c3)c3ccccc3c2=O)c1,"inconclusive: 9.53 µM [inhibitor, partial curve]"
4,COc1ccc(-c2nc(Cn3c(SCc4cccc(F)c4)nc4ccncc43)c(C)o2)cc1OC,"inconclusive: 16.9 µM [inhibitor, partial curve, poor fit]"
5,COc1cccc(-c2nc(NCc3cccnc3)c3ccccc3n2)c1O,"inconclusive: 23.9 µM [inhibitor, partial curve, poor fit]"
6,CC(C)(C)C(=O)Nc1c2c(nn1-c1ccccc1)CSC2,inactive
7,O=C(Nc1nnc(-c2cc(Cl)ccc2Cl)o1)c1ccc2c(c1)OCCO2,"inconclusive: 9.53 µM [inhibitor, partial curve, poor fit]"
8,COc1cccc(Nc2ccc(Nc3cccc(OC)c3)nn2)c1,active: 19 µM
9,CCCCc1ccc(-c2nc(-c3ccncc3)no2)cc1,active: 1.9 µM
10,Cc1ccc(NC(=S)NCCc2c[nH]c3ccccc23)cc1,"inconclusive: 30.1 µM [inhibitor, partial curve, poor fit]"
11,CCn1c(O)c(/C=N/N=C2CCCCC2)c2cc(C3=NNC(=O)CC3)ccc21,"inconclusive: 26.9 µM [inhibitor, single point]"
12,Cc1ccc(-c2cc(C(=O)N3CCCc4ccccc43)c3ccccc3n2)cc1,active: 3.38 µM
13,Cc1ccc2c(c1)c1c(c(=O)n(-c3cccc(Cl)c3)c(=O)n1CC(=O)NCCC1=CCCCC1)n2C,inactive
14,Cc1cccc(C)c1OCC(O)Cn1ccnc1C (centres undefined),inactive
15,CCCc1nnc(NC(=O)c2cccnc2)s1,"inconclusive: 37.9 µM [inhibitor, partial curve, poor fit]"
16,CCn1c(SCc2ccccc2C)nc(=O)c2c(C(=O)OC)cc(C3CC3)nc21,"inconclusive: 30.1 µM [inhibitor, partial curve, poor fit]"
17,CC(Oc1ccc(-c2nccc(-c3ccccn3)n2)cc1)C(=O)NN (centres undefined),"inconclusive: 37.9 µM [inhibitor, partial curve, poor fit]"
18,Cc1ccc(-c2noc(CN3CCCCC3)n2)cc1,active: 19 µM
19,Cc1ccc2nc(NC(=O)C3CCN(S(=O)(=O)c4ccc5c(c4)oc(=O)n5C)CC3)sc2c1,"inconclusive: 7.57 µM [inhibitor, partial curve, poor fit]"
20,CC(C)n1cc(C(=O)N2CCCC(Nc3ccc(F)c(F)c3)C2)cn1 (centres undefined),"inconclusive: 26.9 µM [inhibitor, single point]"
21,CCCn1c2ccccc2c2cnn(CC(=O)NCC3CCN(Cc4ccc(F)cc4)CC3)c(=O)c21,"inconclusive: 8.49 µM [inhibitor, partial curve, poor fit]"
22,COc1cc(C2C(C#N)=C(N)Oc3cc(C)n(CCN4CCOCC4)c(=O)c32)cc(OC)c1OC (centres undefined),"inconclusive: 21.3 µM [inhibitor, single point]"
23,N#C/C(=C\c1cccc([N+](=O)[O-])c1)c1ccccn1,inactive
24,CCOC(=O)/C=C/C(=O)Nc1cccc([N+](=O)[O-])c1,"inconclusive: 10.7 µM [inhibitor, partial curve, poor fit]"
25,O=C(CN1CCCCC1)Nc1ccccc1C(=O)NC1CC1,inactive

row,SMILES,Potency
1,COc1ccc(OC)c(C2CC(=O)N3CN(c4cccc(Cl)c4C)CSC3=C2C#N)c1 (centres undefined),"inconclusive: 12 µM [inhibitor, partial curve]"
2,NC(=O)c1sc2nc3c(cc2c1N)CCCCCC3,active: 19 µM
3,CCOC(=O)c1sc(NC(=O)Cc2ccccc2OC)nc1C,"inconclusive: 37.9 µM [inhibitor, partial curve, poor fit]"
4,O=C(N/N=C/c1ccc(N2CCOCC2)cc1)c1ccccc1NS(=O)(=O)c1cccs1,"inconclusive: 21.3 µM [inhibitor, partial curve]"
5,CCc1nc(SC)ncc1C(=O)N1CCN(c2cc(Cl)ccc2C)CC1,inactive
6,CNc1ccc(Br)cc(C(=O)/C=C/c2ccc(OC)cc2OC)c1=O,active: 12 µM
7,CCCCNC(=O)c1cnc2n(c1=O)CCS2,"inconclusive: 8.49 µM [inhibitor, partial curve, poor fit]"
8,COc1ccc(C(=O)c2sc(Nc3ccccc3)nc2C)cc1,"inconclusive: 33.8 µM [inhibitor, single point]"
9,CCc1nn2c(=O)cc(COC(=O)c3ccc(NC(=O)CCc4ccccc4)cc3)nc2s1,inactive
10,O=C(O)c1ccc(/C=C2\SC(=S)N(NC(=O)c3ccc(Br)cc3)C2=O)cc1,inactive
11,COC(=O)c1c(NC(=O)c2ccco2)sc2c1CCC2,inactive
12,Cc1ccc(NC(=O)Nc2cc(C)on2)cc1,active: 15.1 µM
13,COc1ccc(C)cc1-n1ccn(CC(=O)Nc2ccc(Br)cc2F)c(=O)c1=O,inactive
14,CC(C)(C)c1ccc(/C=N/NC(=O)Cc2c[nH]c3ccccc23)cc1,"inconclusive: 30.1 µM [inhibitor, single point]"
15,O=C(Nc1ccc(Cl)cc1)NC1CCCCNC1=O (centres undefined),"inconclusive: 19 µM [inhibitor, partial curve]"
16,COc1ccc(NC(=S)Nc2cc(-c3ccccc3)[nH]n2)cc1Cl,"inconclusive: 19 µM [inhibitor, partial curve, poor fit]"
17,Cc1ccc(Cl)c(OCC(=O)N(C)CC(=O)Nc2ccc(N3CCOCC3)cc2)c1,"inconclusive: 37.9 µM [inhibitor, single point]"
18,N#Cc1nc(-c2ccc(OCc3ccccc3)cc2)oc1NCCCn1ccnc1,"inconclusive: 21.3 µM [inhibitor, partial curve, poor fit]"
19,Nc1cc(C(=O)O)ccc1Sc1ccccc1C(=O)O,"inconclusive: 26.9 µM [inhibitor, single point]"
20,CC(/C=N/NC(=O)c1cccc(F)c1)=C\c1ccccc1,active: 2.39 µM
21,O=C(CSc1ncnc2sccc12)NCc1ccc2c(c1)OCO2,inactive
22,C/C(=N\NC(=O)c1cccs1)c1cccnc1,"inconclusive: 37.9 µM [inhibitor, partial curve, poor fit]"
23,Cc1c(C(=O)N2CCN(Cc3ccc4c(c3)OCO4)CC2)sc2ncnc(N3CCN(c4ccccc4)CC3)c12,inactive
24,c1ccc2c(Nc3nnc(-c4ccncc4)s3)cccc2c1,active: 5.36 µM
